# About 14,000 (4.5%) of roughly 310,000 compounds showed an effect of 50% or more. Effects have a minus sign here. The list shows a part of the results.
# Molecular target: human ether-à-go-go-related gene (hERG) potassium channel (human, UniProt Q12809)
# Assay: primary screen, population patch clamp on CHO cells stably expressing hERG
# 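Note: peak tail current of the secondary pulse compared with the same well before compound.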
# Chain of human ether-à-go-go-related gene (hERG) potassium channel (Q12809 whole entry, looked up): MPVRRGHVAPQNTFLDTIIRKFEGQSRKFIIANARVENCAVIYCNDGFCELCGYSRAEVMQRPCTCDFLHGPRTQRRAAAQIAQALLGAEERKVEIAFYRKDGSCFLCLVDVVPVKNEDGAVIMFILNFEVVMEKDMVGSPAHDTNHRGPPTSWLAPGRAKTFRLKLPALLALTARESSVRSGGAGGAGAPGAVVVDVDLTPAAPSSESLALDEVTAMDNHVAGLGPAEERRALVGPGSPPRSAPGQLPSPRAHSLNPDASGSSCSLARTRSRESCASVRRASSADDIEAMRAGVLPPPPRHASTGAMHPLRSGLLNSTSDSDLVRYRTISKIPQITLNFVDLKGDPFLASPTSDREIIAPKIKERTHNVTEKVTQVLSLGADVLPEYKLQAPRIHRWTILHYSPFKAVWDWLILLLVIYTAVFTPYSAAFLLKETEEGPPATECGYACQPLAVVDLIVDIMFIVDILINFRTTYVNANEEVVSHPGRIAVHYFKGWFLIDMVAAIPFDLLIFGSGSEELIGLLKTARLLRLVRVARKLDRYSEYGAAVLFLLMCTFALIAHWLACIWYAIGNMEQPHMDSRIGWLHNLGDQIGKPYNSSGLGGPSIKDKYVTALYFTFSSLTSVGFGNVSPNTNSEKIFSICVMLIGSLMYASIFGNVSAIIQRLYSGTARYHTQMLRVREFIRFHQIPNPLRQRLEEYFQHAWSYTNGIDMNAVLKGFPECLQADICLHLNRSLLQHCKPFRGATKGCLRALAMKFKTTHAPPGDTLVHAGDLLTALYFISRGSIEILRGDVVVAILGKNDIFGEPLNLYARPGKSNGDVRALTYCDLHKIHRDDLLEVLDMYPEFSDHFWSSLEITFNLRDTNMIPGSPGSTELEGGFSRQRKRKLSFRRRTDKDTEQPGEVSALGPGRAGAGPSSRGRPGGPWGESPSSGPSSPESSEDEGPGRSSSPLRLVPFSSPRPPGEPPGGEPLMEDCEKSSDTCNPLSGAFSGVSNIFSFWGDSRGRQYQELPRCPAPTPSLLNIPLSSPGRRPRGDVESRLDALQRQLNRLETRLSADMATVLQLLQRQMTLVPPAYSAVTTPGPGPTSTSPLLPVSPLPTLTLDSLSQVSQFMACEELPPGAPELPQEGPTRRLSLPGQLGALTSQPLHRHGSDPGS
row,SMILES,"hERG current change (%, negative = inhibition) at 10uM [%]"
1,O=S(=O)(c1ccc(Cl)cc1)n1nnc2ccccc21,1.44
2,N#Cc1ccc(C(=O)OCC(=O)Nc2cccnc2Cl)cc1,-17.7
3,CCOC(=O)c1sc(NC(=O)c2ccc(OC)cc2)nc1C,15.1
4,O=C(CSc1nnc(Cc2ccccc2)o1)Nc1ccc(Br)cn1,15.5
5,Cc1cccc(OCC(=O)N(Cc2ccccc2)c2c(N)n(Cc3ccccc3)c(=O)[nH]c2=O)c1,-11.2
6,CCCCn1c(=O)cc(N2CCOCC2)[nH]c1=O,1.77
7,Cc1ccc(NC(=O)C2OCCc3ccccc32)cc1Cl (stereo not drawn),6.53
8,Cc1ccc(C(C)C)c(OCCCN2C(=O)NC(C)(C)C2=O)c1,-14.3
9,CCn1c(SCC(=O)N2CCC(C)CC2)nnc1-c1ccco1,13
10,CCOc1cc(C=O)ccc1OCCSc1ccc(Cl)cc1,4.69
11,CC1(C)CC(=O)C=C(NNC(=O)c2cccnc2)C1,19.3
12,CC(C)CNC(=O)c1c(N)n(Cc2ccco2)c2nc3ccccc3nc12,-14.1
13,O=C1NC(=Nc2ccc(Cl)cc2)/C(=C/c2ccco2)S1,15.5
14,CN(C)CCNC(=O)C1CCN(S(=O)(=O)c2ccc3ccccc3c2)CC1,-13.9
15,COC(=O)c1sccc1NC(=O)c1cccs1,11.5
16,Cc1cccc(OCC(=O)N/N=C/CC(C)c2ccccc2)c1C (stereo not drawn),-1.02
17,Cc1cccc(C(=O)Nc2c(C(=O)N3CCN(C)CC3)cnn2-c2ccccc2)c1,-15.9
18,O=S(=O)(/N=C(/c1ccccc1)N1CCCCCC1)c1ccccc1,-17
19,Br.c1ccc(-c2csc(NNC3=NCCCCC3)n2)cc1,-4.59
20,CCCNc1nc(-c2cc(-c3ccc(Cl)cc3)on2)cc(C(C)C)n1,28.7
21,CC(=O)O[C@H]1C(=O)[C@@]2(C)C([C@H](OC(=O)c3ccccc3)[C@]3(O)C[C@H](OC(=O)[C@H](O)[C@@H](NC(=O)Cc4ccccc4)c4ccccc4)C(C)=C1C3(C)C)[C@]1(OC(C)=O)CO[C@@H]1C[C@@H]2O (stereo partly drawn),16.6
22,CCc1cc[n+](C2=C([O-])c3ccccc3C(=O)/C2=N\S(=O)(=O)c2cccs2)cc1,-11.6

row,SMILES,"hERG current change (%, negative = inhibition) at 10uM [%]"
1,CCSc1nc(=S)n(Cc2ccccc2)c(C)c1C(C)=O,4.83
2,O=C(Nc1ccccc1C(F)(F)F)c1cc(S(=O)(=O)N2CCOCC2)ccc1F,-18.6
3,N#C/C(=C\c1cccc([N+](=O)[O-])c1)C(=O)NCc1cccnc1,-50.8
4,CCCC(=O)OC(C(=O)Nc1cc(C(F)(F)F)ccc1Cl)c1ccccc1 (stereo not drawn),-9.58
5,CCN1CCN(C(=O)CSc2cc(=O)n(CC)c3ccccc23)CC1,-6.49
6,COc1ccc(CCN2C(=O)CSC2=S)cc1OC,12.8
7,COc1ccc(-c2cc(C(=O)NCCCN3CCCC3=O)c3ccccc3n2)cc1OC,-64.7
8,CSc1ccccc1NC(=O)c1ccc(N2CC3CC(C2)c2cccc(=O)n2C3)c(NC(=O)c2ccncc2)c1 (stereo not drawn),-30.1
9,Cc1cc2nnc(SCC(=O)Nc3cccc(S(=O)(=O)N4CCOCC4)c3)n2c2ccccc12,-14.4
10,C/C(=N\NC(=O)CNc1ccccc1)c1ccccc1,-12.8
11,O=C1C=C(c2cccs2)CC(c2cccs2)C1n1cnc([N+](=O)[O-])c1 (stereo not drawn),-22.8
12,CC(C)c1ccc(NC(=O)c2cccnc2)cc1,2.13
13,O=C(Nc1cccc(F)c1)c1ccc2ncsc2c1,9.49
14,Cc1cccn2cc(-c3ccc(F)cc3)nc12,-14.1
15,CCOc1ccccc1C(c1c(O)nc(SC)[nH]c1=O)c1c(O)nc(SC)[nH]c1=O,5.67
16,CC(=O)N/C(=C\c1ccccc1)C(=O)OC(C)C(=O)NCc1ccccc1 (stereo not drawn),-8.68
17,Cc1ccc(OCCOc2cccc(Br)c2)c([N+](=O)[O-])n1,0.558
18,Oc1ccc(-c2cnc3ccccc3n2)cc1,2.13
19,COc1ccc(OC)c(NC(=O)c2ccc(S(=O)(=O)N3CCOCC3)cc2)c1,17.2
20,COc1ccc2c(CC(=O)N[C@@H](Cc3ccccc3)C(=O)O)cc(=O)oc2c1C,1.22
21,Nc1ccccc1-c1nnn(CC(=O)Nc2ccc3c(c2)OCCO3)n1,16.5
22,Cc1ccccc1NC(=O)Cc1nc(COC(=O)c2cccnc2Cl)cs1,-5.06

row,SMILES,"hERG current change (%, negative = inhibition) at 10uM [%]"
1,Oc1cccc(/C=N/NC(=S)Nc2cccnc2)c1O,13
2,Nc1nonc1-c1noc(-c2ccc(Br)o2)n1,-9.48
3,Cc1noc(C)c1S(=O)(=O)N1CCCC(C(=O)N2CCc3ccccc3C2)C1 (stereo not drawn),-36.4
4,COC(=O)c1cccc(NC(=O)CC2C(=O)NCCN2C(=O)Nc2cc(C)cc(C)c2)c1 (stereo not drawn),11
5,O=C(C1=C(O)C(=O)N(CCN2CCOCC2)C1c1ccc(Br)cc1)c1cc2ccccc2o1 (stereo not drawn),12.4
6,O=C(Cn1nnc(-c2ccc(F)cc2)n1)N1CCCCC1,12.8
7,COc1ccc(Cn2nnnc2CN(Cc2cc3cccc(C)c3[nH]c2=O)C2CCCC2)cc1,-31
8,COc1cccc(C2SCC(=O)N2c2ccc(Br)cc2)c1OC (stereo not drawn),-2.69
9,CCCCCn1c(N2CCN(Cc3ccccc3)CC2)nc2c1c(=O)[nH]c(=O)n2C,-74.8
10,COc1ccc(CN2CCN(Cc3ccon3)CC2CCO)c(C)c1C (stereo not drawn),-37.3
11,COc1ccc(C(=O)c2c(C)c(CCC#N)n3ccccc23)c(OC)c1,-5.38
12,CC(=NCC1CCCO1)c1c(O)n(-c2ccc(C)cc2)c(=O)[nH]c1=O (stereo not drawn),-8.18
13,O=C(CCS(=O)(=O)c1ccc(Br)s1)NC1CCCC1,6.05
14,Cc1ccc(-n2ncc3c2CC(C)(C)CC3NC(=O)c2ccncc2)cc1 (stereo not drawn),-72.2
15,O=C(NCCc1ccccc1)C(=O)NCC1CCCN1S(=O)(=O)c1cccs1 (stereo not drawn),-22.7
16,NC1=CC(=O)c2cccc3cccc1c23,10.2
17,CC1CCCN(CCC(=O)Nc2ccc(F)c(F)c2)C1 (stereo not drawn),-30.1
18,Cc1cccc(OCCCCn2c(CO)nc3ccccc32)c1,-5.5
19,CCc1nc(Nc2ccccc2)c2oc3ccccc3c2n1.Cl,-5.28
20,Cc1cc(C)n(Cc2ccc(C(=O)NCc3ccco3)o2)n1,1.88
21,CC(=O)c1cccc(NC(=O)NCCc2c[nH]c3ccccc23)c1,-4.67
22,CCOC(=O)N1CCN(C(=O)C(NC(=O)c2ccco2)C(C)C)CC1 (stereo not drawn),13.2

row,SMILES,"hERG current change (%, negative = inhibition) at 10uM [%]"
1,Cc1ccc(S(=O)(=O)N2CCCC(C(=O)NCc3cccnc3)C2)cc1Cl (stereo not drawn),-20.9
2,O=C(COC(=O)c1cccc2ccccc12)Nc1ncc(C(F)(F)F)cc1Cl,13
3,COc1ccccc1C(=O)Nc1c2c(nn1-c1ccc(Cl)cc1)CS(=O)(=O)C2,9.63
4,CCOC(=O)Cc1csc(/N=C/c2c(O)n(-c3ccc(C)c(C)c3)c(=O)c3ccccc23)n1,-11
5,CN(CC(=O)Nc1cccc(F)c1)C(=O)c1cc(S(=O)(=O)N(C)C)ccc1N1CCCC1,-5.03
6,Cc1ccc(S(=O)(=O)N2CCN(C(=O)Cc3ccc(S(=O)(=O)N4CCOCC4)s3)CC2)cc1,8.35
7,CCN1CCN(CC(=O)Nc2ccc3c(c2)OCO3)C(=O)C1=O,-3.39
8,COc1ccc2cc(S(=O)(=O)NCCCN3CCOCC3)ccc2c1,-18.8
9,CCOC(=O)C1=NN(C(=O)c2cccc(Br)c2)C(O)(C(C)(C)C)C1 (stereo not drawn),-57.6
10,CCOc1ccc(NC(=O)C(=O)NCC2CCCN2CC)cc1 (stereo not drawn),-16.4
11,CCCC(=Nc1ccc(N)cc1)C1=C(O)C(C(=O)OC)C(C)(C)CC1=O (stereo not drawn),3.53
12,CNC(=S)N(CCc1c(C)[nH]c2ccc(F)cc12)Cc1ccco1,0.221
13,Cc1cccc(NC(=O)NCc2ccc3[nH]c(C)cc3c2)c1,19.7
14,Cc1nn(C)cc1/C=N/NC(=O)Cn1nnc(N)n1,15.9
15,CCOC(=O)CSc1nnc(-c2ccccc2)o1,7.66
16,Cn1c(SCC(=O)Nc2cccnc2)nnc1-c1ccccc1F,20.9
17,COc1ccc(NC(=O)NCCN2CCN(c3cc(OC)ccc3OC)CC2)cc1,-2.75
18,Cc1ccc2c(c1)sc(C)[n+]2CCCS(=O)(=O)[O-],29.7
19,COCc1cc(C)nc(SCC(=O)Nc2ccc3c(c2)n(C)c(=O)n3C)c1C#N,22.7
20,CC(C)(C)c1csc(NC2=NS(=O)(=O)c3ccccc32)n1,8.84
21,Cc1ccc(NC(=S)NNC(=O)CSc2nc3ccccc3c(=O)n2-c2ccc(C)cc2)cc1,-0.606
